# Measurements from PubChem BioAssay (Tox21).
# Where “and” joins values, the source holds several entries; their conditions need not be identical. Equal entries are not always repeated. This list was built around the results that the source calls inconclusive (neither active nor inactive); the mix of calls is not that of the screen. Potencies of inconclusive entries are doubtful fits and often do not repeat. A structure can be active in one record and inactive in another. Calls of active or inactive are those of the source. Unless noted, calls follow the shape of the dose curve; as a rule, active = well fitted curve in the direction sought with a large enough effect in the repeat runs; inconclusive = weak or mixed curves; inactive = no such curve, though single readings can be large; an effect the other way counts as inactive or inconclusive.
# Legend:
# [1] = qHTS assay to identify small molecule antagonists of the thyroid receptor (TR) signaling pathway - cell viability counter screen (AID 743064); settings: GH3.TRE-Luc viability, CellTiter-Fluor, 24 h; activity change, negative = cytotoxic: at 70.3 µM (top of the series) unless noted; also: nearly all actives have a fitted effect of over 50% in size
# In short: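 Counter screen for cytotoxicity: compound plus T3 (1 nM final) on GH3.TRE-Luc cells, 23.5 h at 37 °C, then fluorescence viability readout with CellTiter-Fluor.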
# [2] = tested on: thyroid hormone receptor (rat, GH3 cells); assay: qHTS assay to identify small molecule agonists of the thyroid receptor (TR) signaling pathway (AID 743066; calls by dose curve); settings: GH3.TRE-Luc cells, TR agonist luciferase, 24 h; activation: at 83.9 µM (top of the series) unless noted
# [3] = qHTS assay to identify small molecule antagonists of the estrogen receptor alpha (ER-alpha) signaling pathway - cell viability counter screen (AID 743074; calls by dose curve;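 also: HEK293 cells carrying ER-alpha-UAS-bla reporter stimulated with 17beta-estradiol; nearly all actives have a fitted effect of over 45% in size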)
# [4] = target: Estrogen receptor (Homo sapiens) (UniProt P03372); assay: qHTS assay to identify small molecule antagonists of the estrogen receptor alpha (ER-alpha) signaling pathway (AID 743069; active = well fitted curve in the direction sought with a large enough effect in the signal ratio in the repeat runs, not every such curve was filed as active; inconclusive = weak or mixed curves, or effect the other way; inactive = no such curve, though single readings can be large or run the other way; the % refers to the signal ratio); settings: HEK293 ER-alpha-UAS-bla, beta-lactamase ratio, antagonist mode; activity, negative = inhibition: at 69.4 µM (top of the series) unless noted
# In short: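 Antagonist mode: compounds in DMSO were co-added with 17beta-estradiol to ER-alpha-bla HEK293 cells (2% charcoal-stripped serum) and left 18 h at 37C. Reporter inhibition was measured as FRET fluorescence after 2 h LiveBLAzer substrate at room temperature.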
# [5] = qHTS assay to identify small molecule antagonists of the thyroid receptor (TR) signaling pathway (AID 743065); also: nearly all actives have a fitted effect of over 55% in size
# In short: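 Antagonism measured as loss of luciferase signal in GH3 cells stably carrying a TRE-luciferase reporter, co-treated with compound and T3 (1 nM final) for 23.5 h at 37 C. Viability was read in the same well by CellTiter-Fluor.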
# % is scaled to controls: 0 for no effect and ±100 for the full control effect; potency is read from the fitted curve at half-maximal effect; tags tell the direction and shape of the fitted curve or compound fluorescence and quenching.
# UniProt P03372, sequence (P03372 whole entry, looked up): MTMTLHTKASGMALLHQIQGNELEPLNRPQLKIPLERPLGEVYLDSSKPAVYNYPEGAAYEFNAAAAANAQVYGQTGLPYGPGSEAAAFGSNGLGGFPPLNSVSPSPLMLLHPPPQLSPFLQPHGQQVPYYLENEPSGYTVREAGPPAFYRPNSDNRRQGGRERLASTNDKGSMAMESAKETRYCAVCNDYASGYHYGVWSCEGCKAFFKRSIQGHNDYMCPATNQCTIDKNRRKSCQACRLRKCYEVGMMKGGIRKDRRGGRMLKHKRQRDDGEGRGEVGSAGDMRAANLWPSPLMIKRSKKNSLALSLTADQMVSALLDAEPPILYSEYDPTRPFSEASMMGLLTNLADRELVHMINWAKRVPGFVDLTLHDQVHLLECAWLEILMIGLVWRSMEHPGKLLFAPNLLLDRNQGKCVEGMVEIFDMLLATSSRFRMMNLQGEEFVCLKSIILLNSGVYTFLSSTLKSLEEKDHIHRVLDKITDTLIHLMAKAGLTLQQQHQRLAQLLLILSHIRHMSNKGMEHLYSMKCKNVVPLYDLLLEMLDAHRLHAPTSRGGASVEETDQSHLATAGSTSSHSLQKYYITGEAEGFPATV
compound,measurement,setting,value
O=C1O[C@H]([C@@H](O)CO)C(O)=C1O,Potency,[1],"inconclusive: 2.98 µM [rising, single point]"
same,Potency,[2],active: 34.3 µM
same,Potency,[3],"inconclusive: 13.8 µM [rising, full curve, poor fit]"
Cc1ccc2ccccc2c1[N+](=O)[O-],Potency,[1],inactive
same,activation,[2],inconclusive: 40.6% [activator]
same,Potency,[4],inactive
same,Potency,[3],inactive
CN(C)C(=O)NC1(c2ccccc2)CCN(CC[C@@]2(c3ccc(F)c(F)c3)CN(C(=O)c3ccccc3)CCO2)CC1,Potency,[1],active: 31.9 µM
same,Potency,[2],"inconclusive: 31.9 µM [inhibitor, partial curve, poor fit]"
Cn1cc[nH]c1=S,Potency,[1],inactive
same,Potency,[5],inactive
same,Potency,[3],"inconclusive: 43.6 µM [cytotoxic, partial curve, poor fit]"
CC(C)OC(=O)CCCCC(=O)OC(C)C,Potency,[1],"inconclusive: 68.7 µM [cytotoxic, single point]"
same,Potency,[5],"inconclusive: 77.1 µM [inhibitor, single point]"
same,Potency,[4],"inconclusive: 61.8 µM [rising, partial curve, poor fit]"
O=C1CCC(C2CCCCC2)CC1,Potency,[1],inactive
same,Potency,[5],"inconclusive: 77 µM [inhibitor, partial curve, poor fit]"
same,Potency,[3],"inconclusive: 27.5 µM [rising, partial curve, poor fit]"
COc1ccc(S(=O)(=O)Nc2nnc(CC(C)C)s2)cc1,Potency,[1],inactive
same,Potency,[2],inactive
O=C(C1CCCCC1)N1CC(=O)N2CCc3ccccc3C2C1 (stereo not drawn),Potency,[1],"inconclusive: 0.668 µM [rising, single point]"
same,Potency,[5],"inconclusive: 61 µM [inhibitor, single point]"
same,Potency,[3],"inactive and inconclusive: 48.9 µM [cytotoxic, single point] and inconclusive: 30.9 µM [cytotoxic, full curve, poor fit]"
